These results are taken from ChEMBL document CHEMBL4888484, “Replenishing the malaria drug discovery pipeline: Screening and hit evaluation of the MMV Hit Generation Library 1 (HGL1) against asexual blood stage Plasmodium falciparum ,using a nano luciferase reporter read-out” (2022).

Each structure is given as a SMILES string. Among all 150,000 compounds or so, about 540 (0.36%) showed an effect of 50% or more. The list shows a part of the results.

Usually % Inhibition stands for the relative decrease from the control value, in per cent.

This test has as its system Plasmodium falciparum. Description: Primary screen in NF54 nanoGlo assay, in single point, at 2uM, 72h; a lower Z score goes with more inhibition. The class given is functional, Erythrocyte. As to conditions: timepoint 72 hour.
`Cc1cnc(NCc2csc(CNC(=O)c3ccccc3)n2)nc1`: the “% Inhibition” value came to 4% and the Z score is -0.43.
As for `COc1ccccc1-c1nc2ccc(-c3cc(C)c(OC)c(C)c3)cc2o1`, the “% Inhibition” value is -5% and the Z score is reported as 0.89.
Regarding `C[C@@H](C(=O)N1CCc2onc(-c3cccc4ccccc34)c2C1)n1ccnc1`, the “% Inhibition” value is reported as -6% and the Z score was found to be 0.71.
The corresponding values for `CN(C)C[C@]12CCN(S(=O)(=O)c3ccc4c(c3)CCC4)C[C@H]1CN(C(=O)N(C)C)C2` are 8% and -1.5.
The corresponding values for `Cc1cnn(C2CCN(S(=O)(=O)C3(C)CC3)CC2)c1` are -18% and 3.19.
As for `CC(OC1CCCCCC1)C(=O)N[C@H](CO)C(C)C` (stereo partly drawn), the “% Inhibition” value is recorded as -5% and the Z score was determined as 0.6.
For `Nc1ccccc1OCCCc1ccccc1`, in that order: -14% and 2.31.
As for `COc1ccc(-c2nc(-c3cccc(-c4nnc(N)o4)c3)sc2C)c(OC)c1`, the “% Inhibition” value worked out at 37% and the Z score was -1.16.
The corresponding values for `C[C@H](O)c1nnnn1Cc1sc2ccccc2c1Cl` are 6% and -0.8.
For the compound `Cc1ccc2c(c1)c(=O)c(C(=O)N(CCOc1ccccc1)C[C@H]1CCCO1)cn2C`, the “% Inhibition” value was -10% and the Z score turned out to be 1.36.
For `CCn1cc(C2CCN(C(=O)NCc3ccncc3C)CC2)cn1`, in that order: -2% and 0.3.
Regarding `O=S(=O)(NCC[C@H](O)c1ccoc1)C1CC1`, the “% Inhibition” value was -12% and the Z score is recorded as 1.5.
The corresponding values for `COc1cc(-c2noc([C@H]3CCCOCC3)n2)ncn1` are -1% and 0.09.
As for `CN(Cc1ccccc1)C(=O)C1CC(=O)CC1C(=O)N(C)Cc1ccccc1` (stereo not drawn), the “% Inhibition” value is -1% and the Z score turned out to be 0.09.
Consider `O=C(CCc1ccc(S(=O)(=O)N2CCCC2)cc1)Nc1cccc(S(=O)(=O)N2CCCC2)c1`, for which the “% Inhibition” value was -14% and the Z score came out at 2.02.
For `Cc1occc1C(=O)NC[C@H]1CCS(=O)(=O)C1`, in that order: -9% and 1.4.
The corresponding values for `O=S(=O)(Nc1cc(-n2nnnc2C2CC2)ccc1F)c1ccc(C2CCCCC2)cc1` are -5% and 0.65.
For `Cc1cc(NC(=O)Cc2c(C)nn(C)c2C)no1`, the “% Inhibition” value is reported as 0% and the Z score was found to be 0.07.
As for `CCCc1nccn1-c1cnn2cccnc12`, the “% Inhibition” value was 13% and the Z score was -1.75.
The corresponding values for `O=C(COc1ccc2ccccc2c1)Nc1ccc2nccnc2c1` are -8% and 1.
In the case of `Cc1ccccc1Cn1cccc1CNS(=O)(=O)c1ccc(C2CCCCC2)cc1`, the “% Inhibition” value was -8% and the Z score was 0.8.
For `Cc1ccc([C@H](C(=O)O)N2CCN(c3cnccn3)CC2)c(C)c1`, in that order: -4% and 0.53.
The corresponding values for `COc1ccccc1N1CCN(C(=O)Nc2ccc(N3CCOCC3)cc2C)CC1` are 0% and 0.05.
The corresponding values for `CS(=O)(=O)N1C2CCC1CC(NC(=O)c1cc(Br)ccc1Cl)C2` (stereo not drawn) are -22% and 3.76.
Take `COc1ccc2c(=O)c(C#N)c[nH]c2c1`: the “% Inhibition” value is given as -2% and the Z score is reported as 0.18.
The corresponding values for `O=C(C1COc2ccccc2C1)N1CCC(c2cccs2)S(=O)(=O)CC1` (stereo not drawn) are -5% and 0.79.
With `O=C(NC1CCCCC1)c1ccc(Cl)c(NC(=O)C2CCCCC2)c1`, the “% Inhibition” value is on record as -9% and the Z score was found to be 1.
The corresponding values for `CC(C)Oc1ccc(C(=O)NC[C@H]2CCCN2c2ncccn2)cc1` are 5% and -0.56.
The corresponding values for `CNC(=O)CN(C)CC=Cc1ccccc1` are -1% and 0.2.
Turning to `COCCNC(=O)[C@@H](C)[C@@H]1CC[C@@]2(C)CC[C@H](NC(=O)C3CCCCC3)[C@@H](C)[C@@H]2[C@H]1O`, the “% Inhibition” value was -8% and the Z score was 0.97.
Take `CS(=O)(=O)N1CCC[C@H](Cn2nnnc2C=Cc2ccccc2)C1`: the “% Inhibition” value came to 34% and the Z score is listed as -0.7.
For the compound `O=C(C1CCCC1)N1CC[C@@]2(O)CCN(Cc3nc(C(F)(F)F)no3)C[C@H]2C1`, the “% Inhibition” value is on record as 10% and the Z score is -1.32.
For the compound `C[C@@H](C1CC1)N(CCC#N)Cc1ccc2ccccc2n1`, the “% Inhibition” value is given as -7% and the Z score amounted to 1.17.
For `COc1ccc(CCC(=O)N2CC[C@H](Oc3ncccn3)C2)cc1`, the “% Inhibition” value is -9% and the Z score came out at 1.23.
Consider `O=C(Nc1cccs1)N(CC(F)(F)F)C1CCOCC1`, for which the “% Inhibition” value is given as -21% and the Z score amounted to 2.33.
The corresponding values for `CC(C)(O)CCc1ccc(C(=O)N2C[C@@H]3C[C@H]2CN3Cc2ccccc2)cc1` are -3% and 0.54.
The corresponding values for `Cc1nn2c(c1-c1ccc(Cl)c(S(=O)(=O)NCCC(C)C)c1)NC(=O)CCC2=O` are 1% and -0.11.
As for `CCN1CC[C@@]2(CCC1=O)CN(C(=O)Nc1c(C)cccc1C)CCN2C`, the “% Inhibition” value is recorded as -7% and the Z score worked out at 1.06.
Regarding `O=C(Nc1ccc(O)c(Cl)c1)c1ccnnc1`, the “% Inhibition” value is -5% and the Z score is 0.89.
The corresponding values for `Cc1ccc(=O)n(CCC(=O)Nc2cc(F)cc(F)c2)n1` are -5% and 0.94.
As to `Cc1cc(C(=O)N2CCN(c3ccc(C(F)(F)F)cc3)CC2)cc(O)n1`, the “% Inhibition” value was 9% and the Z score is -1.04.
For `CC(C)c1cnc(CNc2nnc([C@@H]3Cc4ccccc4O3)o2)s1`, in that order: 30% and -3.43.
For `Cc1c(C(=O)N[C@@H]2C[C@H]3OCC[C@@H]23)[nH]c2c(F)cccc12`, in that order: -12% and 2.45.
Take `Cc1cccc(S(=O)(=O)Nc2ccccc2N2CCCN(Cc3ccc(F)cc3)C2=O)c1`: the “% Inhibition” value is given as -7% and the Z score came to 1.08.
The corresponding values for `CCN1CCN(c2c(CN(CCC(C)C)S(=O)(=O)c3ccc(C)cc3)c(C)nn2-c2ccccc2)CC1` are -15% and 2.45.
`C=CCn1cc(CN(C)CC[C@H]2CCCCO2)cn1`: the “% Inhibition” value is -7% and the Z score is listed as 0.97.
With `Cc1n[nH]c(C)c1CCCN(C)C1CCN(c2cccc(F)c2)CC1`, the “% Inhibition” value is on record as 6% and the Z score is reported as -0.79.
For `COc1ccc(CC(=O)NCc2nccc(N3CCCCC3)n2)cc1`, in that order: -7% and 1.14.
For the compound `O=C(c1cccs1)N1CC[C@@]2(CCCN(Cc3ccc(F)c(F)c3)C2=O)C1`, the “% Inhibition” value is reported as -2% and the Z score is 0.32.
The corresponding values for `Cn1ncnc1CCNC(=O)c1cnc(-c2cccnc2)nc1` are 1% and -0.18.
For `CC(C)c1cc(C(=O)N2CCC[C@@H]2CO)cc(O)n1`, in that order: 0% and 0.07.
`CC(C)Cc1cc(C(=O)N[C@@H](C)c2nncn2C2CCCC2)on1`: the “% Inhibition” value is reported as -5% and the Z score turned out to be 0.98.
Regarding `O=C1CC[C@H](NC(=O)c2cc(-c3cccc(C(F)(F)F)c3)ccn2)CCN1`, the “% Inhibition” value was -10% and the Z score was 1.89.
Turning to `Cc1ccc(C(=O)N[C@@H](C2CCOCC2)C2(CO)CCC2)o1`, the “% Inhibition” value is 2% and the Z score is recorded as -0.36.
